The supplement of paper PMC10338343
± gives the standard deviation. Over roughly 6,600 sequences, “pre-steady-state target cleavage rate” has its median near 0.07; the highest 2% begin near 0.72. This is a selection; strong and weak results do not stand in their true shares.
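Also: 1 nM active piRISC with 0.1 nM target library at 33 °C single turnover.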

What follows are sequences tested on MIWI (PIWIL1) piRISC loaded with Kctd7 piRNA (30 nt) (assay: pre-steady-state target cleavage rate (min^-1); MIWI and MILI are mouse PIWI proteins and EfPiwi is from a freshwater sponge; tags in brackets are library labels; higher = faster piRNA-guided slicing of the target). Conditions: guide: Kctd7 piRNA 5'p-UGUUAAUCUCUCAGAGAAGGUGACAGUGAU; auxiliary factor: 500 nM mouse GTSF1.
In short: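 For Cleave-'n-Seq, a transcribed, DNA-blocked target RNA library […] met 1 nM active affinity-purified piRISC with one synthetic guide at 33 °C for 0–8 or 0–960 min in HEPES–potassium acetate buffer, with or without 500 nM GTSF1 partner protein. Uncleaved targets were sequenced and normalised to depth and weakly complementary targets, with three trials pooled and k3 capped at 0.0001 min^-1. A burst-and-steady-state fit supplied the pre-steady-state cleavage rate.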
For UAGACUGUCACCUUCUCUGUGAGUUUAACA, the “pre-steady-state target cleavage rate” value was 0.122 ± 0.01. With AUCACUGUCACCUUCUCUGACAGAAUAACA the “pre-steady-state target cleavage rate” value was 0.0274 ± 0.0084. UAGUGACAGACCUUCUCUGAGAGACUUAACA was tested, and the “pre-steady-state target cleavage rate” value was 0.0174 ± 0.0053. In the case of UAGUAUGUCACCUUCUCUGAGAGAUUAACA, the “pre-steady-state target cleavage rate” value is reported as 0.635 ± 0.029. For AUCACUGUCACCUUCUAUGAGAGAUUAACA, the “pre-steady-state target cleavage rate” value was 0.244 ± 0.021. With AUCACUGACUCCUUCUCUGAGAGAUUAACA the “pre-steady-state target cleavage rate” value was 0.593 ± 0.039. For UAGUGACAGACCUUUCUGAGAGAUUAACA, the “pre-steady-state target cleavage rate” value was 0.0047 ± 0.0046. In the case of UAGACUGUGAGCUUCUCUGAGAGAUUAACA, the “pre-steady-state target cleavage rate” value is reported as 0.276 ± 0.02. In the case of UAGUGACUCACCUUCUCUGAGAGAUUACA, the “pre-steady-state target cleavage rate” value is reported as 0.0834 ± 0.018. AUCACUGUCACCUUCUCUGAGAGUUUAUGA was tested, and the “pre-steady-state target cleavage rate” value was 0.528 ± 0.12. With UUCACUGUCACCUUCUCAGAGAGAUAUUGA the “pre-steady-state target cleavage rate” value was 0.029 ± 0.013. UUCACUGCCACCUUCUCUGAGAGAUUAACA was tested, and the “pre-steady-state target cleavage rate” value was 0.611 ± 0.023. UAGUGAGUCACCUUCUCUGAGUGAUUAACA was tested, and the “pre-steady-state target cleavage rate” value was 0.037 ± 0.0072. In the case of UUCACUGUCACCUUCUGUGAGACAUUAACA, the “pre-steady-state target cleavage rate” value is reported as 0.144 ± 0.016. In the case of UAGUGACACACCUUCUCUGAGAGGUUAACA, the “pre-steady-state target cleavage rate” value is reported as 0.159 ± 0.018. With UAGUGAGUCACCUUCUGUGAGACAUUAACA the “pre-steady-state target cleavage rate” value was 0.13 ± 0.019. In the case of UAGUGUGUCACCUACACUGAGAGAUUAACA, the “pre-steady-state target cleavage rate” value is reported as 0.315 ± 0.037. UACACUGUCACCUUCACUGAGAGAUUAACA was tested, and the “pre-steady-state target cleavage rate” value was 0.406 ± 0.035. For UAGUGACAGUACUUCUCUGAGAGAUUAACA, the “pre-steady-state target cleavage rate” value was 0.0173 ± 0.0027. For UUCACAGUCACCUUCUCUGAGAGAAUAACA, the “pre-steady-state target cleavage rate” value was 0.384 ± 0.054. For UAGACACUCACCUUCUCUGAGAGAUAUUGA, the “pre-steady-state target cleavage rate” value was 0.0515 ± 0.011. With AUCACUGUCACCUUCUCAGAGAGAUUAAGA the “pre-steady-state target cleavage rate” value was 0.106 ± 0.022. In the case of UAGUGUGUCACCUUCACUCAGAGAUUAACA, the “pre-steady-state target cleavage rate” value is reported as 0.036 ± 0.01. For UAGACUGUCACCUUCUUGAGAGAUUAACA, the “pre-steady-state target cleavage rate” value was 0.0221 ± 0.0078. In the case of UAGUGACAGACCUUCUCUGAGAGCUUAACA, the “pre-steady-state target cleavage rate” value is reported as 0.0423 ± 0.0069. For UACACUGUCACCUUCUCUGAGAGUUUAACA, the “pre-steady-state target cleavage rate” value was 0.365 ± 0.058. With AUCACUGUCACCUACUCUGAGACAUUAACA the “pre-steady-state target cleavage rate” value was 0.0631 ± 0.012. In the case of UAGUGACACACGUUCUCAGAGAGAUUAACA, the “pre-steady-state target cleavage rate” value is reported as 0.0199 ± 0.0051. UAGACUGUCACCUUGUCUGAGAGAUUAAGA was tested, and the “pre-steady-state target cleavage rate” value was 0.316 ± 0.046. For AUCACAGUCACCUUCUCUGAGAGAUUAAGA, the “pre-steady-state target cleavage rate” value was 0.0775 ± 0.013. With UAGACUGUCACCUUCCCUGAGAGAUUAACA the “pre-steady-state target cleavage rate” value was 0.356 ± 0.043. UAGACUGUCACCUUCAGAGAGAGAUUAACA was tested, and the “pre-steady-state target cleavage rate” value was 0.00784 ± 0.005. In the case of UAGACUGUCACCUUCUCUGAGAGUAUAACA, the “pre-steady-state target cleavage rate” value is reported as 0.0614 ± 0.011. For UAGUGUGUCACCUUCUCUGUCAGAUUAACA, the “pre-steady-state target cleavage rate” value was 0.00812 ± 0.0039. In the case of UAGUCUGUCUCCUACUCUGAGAGAUUAACA, the “pre-steady-state target cleavage rate” value is reported as 0.647 ± 0.041. In the case of UACACUGUCACCUUCUCUGAGAGUAUUAACA, the “pre-steady-state target cleavage rate” value is reported as 0.421 ± 0.046. UACACUGUCACCUUCUGUGUGAGAUUAACA was tested, and the “pre-steady-state target cleavage rate” value was 0.0849 ± 0.012. With UAGUGACACUCCUUCUCUGAGAGUUUAACA the “pre-steady-state target cleavage rate” value was 0.0594 ± 0.011. In the case of UAGUGACAGACCAUCUCUGAGAGUUUAACA, the “pre-steady-state target cleavage rate” value is reported as 0.00779 ± 0.0032. In the case of UACACACUCACCUUCUCUGAGAGAUAUUGA, the “pre-steady-state target cleavage rate” value is reported as 0.0508 ± 0.021. For UACACUGUCACCUUCACUGAGAGAUAAACA, the “pre-steady-state target cleavage rate” value was 0.175 ± 0.024. In the case of UAGUGACACACCUUGUCAGAGAGAUUAACA, the “pre-steady-state target cleavage rate” value is reported as 0.0179 ± 0.005. In the case of AUAACUGUCACCUUCUCUGAGAGAUUAACA, the “pre-steady-state target cleavage rate” value is reported as 0.675 ± 0.03. In the case of UAGUGACACACCUUACUCUGAGAGAUUAACA, the “pre-steady-state target cleavage rate” value is reported as 0.0931 ± 0.0083. With UAGUGACAGCCCUUCUCUGAGAGAUUAACA the “pre-steady-state target cleavage rate” value was 0.184 ± 0.019. With UUCAGUGACACCUUCUCUGAGAGAUUAACA the “pre-steady-state target cleavage rate” value was 0.502 ± 0.027. With UUCACUGUCACCUUCUCUGAGAGUAUUUGA the “pre-steady-state target cleavage rate” value was 0.276 ± 0.071. In the case of UAGUGACUCACCUUGCUCUGAGAGAUUAACA, the “pre-steady-state target cleavage rate” value is reported as 0.03 ± 0.0057. UACACUGUGACCUUCUCAGAGAGAUUAACA was tested, and the “pre-steady-state target cleavage rate” value was 0.185 ± 0.013. For UAGUGACACACCAUCUCUGAGAGAUUAUGA, the “pre-steady-state target cleavage rate” value was 0.00476 ± 0.0034. With UAGUGAGUCACCUUGUCUGAGAGAUUAUGA the “pre-steady-state target cleavage rate” value was 0.0155 ± 0.0053. In the case of UAGUCUGUCACCUUCUCUGAGAGGUUAACA, the “pre-steady-state target cleavage rate” value is reported as 0.389 ± 0.033. In the case of UUCUCUCUCACCUUCUCUGAGAGAUUAACA, the “pre-steady-state target cleavage rate” value is reported as 0.221 ± 0.015. UAGACUGUCACCUACUCUGUGAGAUUAACA was tested, and the “pre-steady-state target cleavage rate” value was 0.166 ± 0.013. For UUCACUCUCACCUUCUCUGAGAGAUAUUGA, the “pre-steady-state target cleavage rate” value was 0.0274 ± 0.0094. AUCUCUGUCACCUUCUCUGAGUGAUUAACA was tested, and the “pre-steady-state target cleavage rate” value was 0.0518 ± 0.0093. In the case of AUCACUCUCACCUUGUCUGAGAGAUUAACA, the “pre-steady-state target cleavage rate” value is reported as 0.253 ± 0.025. With AUCACACACACCUUCUCUGAGAGAUUAAGA the “pre-steady-state target cleavage rate” value was 0.187 ± 0.034. UAGUGUGUCACCUUCUCUGAGAGUAUAAGA was tested, and the “pre-steady-state target cleavage rate” value was 0.0129 ± 0.0064. For UAGUGACAGACCUUCUCUGAGAGAUUAAUCA, the “pre-steady-state target cleavage rate” value was 0.0736 ± 0.012. In the case of UAGUGACUCACCUUCUCAGAGAGUUUAACA, the “pre-steady-state target cleavage rate” value is reported as 0.0338 ± 0.0068. In the case of UAGUGACAGUCCUUCACUGAGAGUUUAACA, the “pre-steady-state target cleavage rate” value is reported as 0.00412 ± 0.0031. UACACUGUCACCUUCUCUGAGAGUAUAUGA was tested, and the “pre-steady-state target cleavage rate” value was 0.0187 ± 0.013. UAGACUGACACCUUCUCUGAGAGAUUAAGA was tested, and the “pre-steady-state target cleavage rate” value was 0.171 ± 0.029. For UAGUGACACUGCUUCUCUGAGAGAUUAAGA, the “pre-steady-state target cleavage rate” value was 0.0288 ± 0.0053. AUGUGUGUCACCUUCUCUGAGAGAUAUUGA was tested, and the “pre-steady-state target cleavage rate” value was 0.0536 ± 0.017. In the case of UACACUGUCAGCUUCUCAGAGAGAUUAACA, the “pre-steady-state target cleavage rate” value is reported as 0.276 ± 0.022. With UACACUGUCUCCUUCUCUGAGUGAUUAACA the “pre-steady-state target cleavage rate” value was 0.0287 ± 0.0061. UAGUCUGUCACCUUCUCUGAUAGAUUAACA was tested, and the “pre-steady-state target cleavage rate” value was 0.242 ± 0.015. With UACACAUGUCACCUUCUCUGAGAGAUUAACA the “pre-steady-state target cleavage rate” value was 0.462 ± 0.023. For AUCACUGUCACCAUCUCUCAGAGAUUAACA, the “pre-steady-state target cleavage rate” value was 0.0702 ± 0.0098. For UACACUGUCUCCUUCUCUGAGAGAUUAUGA, the “pre-steady-state target cleavage rate” value was 0.0612 ± 0.017.
